# Results: the supplement of paper PMC8728848
# The other results are listed elsewhere or left out.
# Tests used:
# Assay in all cases: glycan array binding signal (z-score within array); higher = stronger binding
# Conditions in all cases: glycan notation: IUPAC condensed, linker removed
# Glc(b1-4)Glc = molecular target: Glc(b1-4)Glc
# Summary of the method: (§1)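 The binding signal is a Z-score computed within each array. Data were drawn from 3228 arrays in the Consortium for Functional Glycomics database, restricted to those with a known protein sequence. Scores were averaged over arrays of the same protein sequence at different concentrations or buffers, and over linkers, and negative values can be taken as non-binding.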
# Glc(b1-6)Glc = molecular target: Glc(b1-6)Glc
# Summary of the method: as §1
# GlcA(b1-3)Gal = molecular target: GlcA(b1-3)Gal
# Summary of the method: as §1
# GlcA(b1-3)GlcNAc = molecular target: GlcA(b1-3)GlcNAc
# Summary of the method: as §1
# GlcA(b1-6)Gal = molecular target: GlcA(b1-6)Gal
# Summary of the method: as §1
# [1] = molecular target: GlcA3S(b1-3)Gal(b1-4)GlcNAc(b1-2)Man
# Summary of the method: as §1
# [2] = molecular target: GlcA3S(b1-3)Gal(b1-4)GlcNAc(b1-3)Gal(b1-4)Glc
# Summary of the method: as §1
# [3] = molecular target: GlcNAc(a1-3)Gal(b1-4)GlcNAc
# Summary of the method: as §1
# [4] = molecular target: GlcNAc(a1-4)Gal(b1-3)GlcNAc
# Summary of the method: as §1
# [5] = molecular target: GlcNAc(a1-4)Gal(b1-4)GalNAc
# Summary of the method: as §1
# [6] = molecular target: GlcNAc(a1-4)Gal(b1-4)GlcNAc
# Summary of the method: as §1
# [7] = molecular target: GlcNAc(a1-4)Gal(b1-4)GlcNAc(b1-3)Gal(b1-4)Glc
# Summary of the method: as §1
# [8] = molecular target: GlcNAc(a1-4)Gal(b1-4)GlcNAc(b1-3)Gal(b1-4)GlcNAc
# Summary of the method: as §1
# [9] = molecular target: GlcNAc(a1-4)Gal(b1-4)GlcNAc(b1-3)Gal(b1-4)GlcNAc(b1-3)Gal(b1-4)GlcNAc
# Summary of the method: as §1
# [10] = molecular target: GlcNAc(a1-4)Gal(b1-4)GlcNAc(b1-3)Gal(b1-4)[Fuc(a1-3)]GlcNAc(b1-3)Gal(b1-4)[Fuc(a1-3)]GlcNAc
# Summary of the method: as §1
# [11] = molecular target: GlcNAc(a1-6)Gal(b1-4)GlcNAc
# Summary of the method: as §1
# [12] = molecular target: GlcNAc(b1-2)Gal(b1-3)GalNAc
# Summary of the method: as §1
# [13] = molecular target: GlcNAc(b1-2)Man(a1-3)[GlcNAc(b1-2)Man(a1-6)]Man(b1-4)GlcNAc(b1-4)GlcNAc
# Summary of the method: as §1
# [14] = molecular target: GlcNAc(b1-2)Man(a1-3)[GlcNAc(b1-2)Man(a1-6)]Man(b1-4)GlcNAc(b1-4)[Fuc(a1-6)]GlcNAc
# Summary of the method: as §1
# [15] = molecular target: GlcNAc(b1-2)Man(a1-3)[GlcNAc(b1-4)][GlcNAc(b1-2)Man(a1-6)]Man(b1-4)GlcNAc(b1-4)GlcNAc
# Summary of the method: as §1
# [16] = molecular target: GlcNAc(b1-2)Man(a1-3)[GlcNAc(b1-4)][GlcNAc(b1-2)Man(a1-6)]Man(b1-4)GlcNAc(b1-4)[Fuc(a1-6)]GlcNAc
# Summary of the method: as §1
# [17] = molecular target: GlcNAc(b1-2)[GlcNAc(b1-4)]Man(a1-3)[GlcNAc(b1-2)Man(a1-6)]Man(b1-4)GlcNAc(b1-4)GlcNAc
# Summary of the method: as §1
# [18] = molecular target: GlcNAc(b1-2)[GlcNAc(b1-4)]Man(a1-3)[GlcNAc(b1-4)][GlcNAc(b1-2)Man(a1-6)]Man(b1-4)GlcNAc(b1-4)GlcNAc
# Summary of the method: as §1
# [19] = molecular target: GlcNAc(b1-2)[GlcNAc(b1-4)]Man(a1-3)[GlcNAc(b1-4)][GlcNAc(b1-2)[GlcNAc(b1-6)]Man(a1-6)]Man(b1-4)GlcNAc(b1-4)GlcNAc
# Summary of the method: as §1
# [20] = molecular target: GlcNAc(b1-2)[GlcNAc(b1-4)]Man(a1-3)[GlcNAc(b1-4)][GlcNAc(b1-2)[GlcNAc(b1-6)]Man(a1-6)]Man(b1-4)GlcNAc(b1-4)[Fuc(a1-6)]GlcNAc
# Summary of the method: as §1
# [21] = molecular target: GlcNAc(b1-2)[GlcNAc(b1-6)]Man(a1-6)[GlcNAc(b1-2)Man(a1-3)]Man(b1-4)GlcNAc(b1-4)GlcNAc
# Summary of the method: as §1
# [22] = molecular target: GlcNAc(b1-2)[GlcNAc(b1-6)]Man(a1-6)[GlcNAc(b1-2)Man(a1-3)]Man(b1-4)GlcNAc(b1-4)[Fuc(a1-6)]GlcNAc
# Summary of the method: as §1
# [23] = molecular target: GlcNAc(b1-2)[GlcNAc(b1-6)]Man(a1-6)[GlcNAc(b1-4)][GlcNAc(b1-2)Man(a1-3)]Man(b1-4)GlcNAc(b1-4)GlcNAc
# Summary of the method: as §1
# GlcNAc(b1-3)Fuc = molecular target: GlcNAc(b1-3)Fuc
# Summary of the method: as §1
# GlcNAc(b1-3)Gal = molecular target: GlcNAc(b1-3)Gal
# Summary of the method: as §1
# [24] = molecular target: GlcNAc(b1-3)Gal(b1-3)GalNAc
# Summary of the method: as §1
# GlcNAc(b1-3)Gal(b1-4)Glc = molecular target: GlcNAc(b1-3)Gal(b1-4)Glc
# Summary of the method: as §1
# [25] = molecular target: GlcNAc(b1-3)Gal(b1-4)GlcNAc
# Summary of the method: as §1
# [26] = molecular target: GlcNAc(b1-3)Gal(b1-4)GlcNAc(b1-2)Man(a1-3)[GlcNAc(b1-3)Gal(b1-4)GlcNAc(b1-2)Man(a1-6)]Man(b1-4)GlcNAc(b1-4)GlcNAc
# Summary of the method: as §1
# [27] = molecular target: GlcNAc(b1-3)Gal(b1-4)GlcNAc(b1-2)Man(a1-3)[GlcNAc(b1-3)Gal(b1-4)GlcNAc(b1-2)Man(a1-6)]Man(b1-4)GlcNAc(b1-4)[Fuc(a1-6)]GlcNAc
# Summary of the method: as §1
# [28] = molecular target: GlcNAc(b1-3)Gal(b1-4)GlcNAc(b1-2)[GlcNAc(b1-3)Gal(b1-4)GlcNAc(b1-6)]Man(a1-6)[GlcNAc(b1-3)Gal(b1-4)GlcNAc(b1-2)Man(a1-3)]Man(b1-4)GlcNAc(b1-4)GlcNAc
# Summary of the method: as §1
# [29] = molecular target: GlcNAc(b1-3)Gal(b1-4)GlcNAc(b1-3)Gal(b1-4)GlcNAc
# Summary of the method: as §1
# [30] = molecular target: GlcNAc(b1-3)Gal(b1-4)GlcNAc(b1-3)Gal(b1-4)GlcNAc(b1-2)Man(a1-3)[GlcNAc(b1-3)Gal(b1-4)GlcNAc(b1-3)Gal(b1-4)GlcNAc(b1-2)Man(a1-6)]Man(b1-4)GlcNAc(b1-4)GlcNAc
# Summary of the method: as §1
# [31] = molecular target: GlcNAc(b1-3)Gal(b1-4)GlcNAc(b1-3)Gal(b1-4)GlcNAc(b1-2)Man(a1-3)[GlcNAc(b1-3)Gal(b1-4)GlcNAc(b1-3)Gal(b1-4)GlcNAc(b1-2)Man(a1-6)]Man(b1-4)GlcNAc(b1-4)[Fuc(a1-6)]GlcNAc
# Summary of the method: as §1
# [32] = molecular target: GlcNAc(b1-3)Gal(b1-4)GlcNAc(b1-3)Gal(b1-4)GlcNAc(b1-2)[GlcNAc(b1-3)Gal(b1-4)GlcNAc(b1-3)Gal(b1-4)GlcNAc(b1-6)]Man(a1-6)[GlcNAc(b1-3)Gal(b1-4)GlcNAc(b1-3)Gal(b1-4)GlcNAc(b1-2)Man(a1-3)]Man(b1-4)GlcNAc(b1-4)[Fuc(a1-6)]GlcNAc
# Summary of the method: as §1
# [33] = molecular target: GlcNAc(b1-3)Gal(b1-4)GlcNAc(b1-3)Gal(b1-4)GlcNAc(b1-3)Gal(b1-4)GlcNAc(b1-2)Man(a1-3)[GlcNAc(b1-3)Gal(b1-4)GlcNAc(b1-3)Gal(b1-4)GlcNAc(b1-3)Gal(b1-4)GlcNAc(b1-2)Man(a1-6)]Man(b1-4)GlcNAc(b1-4)GlcNAc
# Summary of the method: as §1
# [34] = molecular target: GlcNAc(b1-3)Gal(b1-4)GlcNAc(b1-3)Gal(b1-4)GlcNAc(b1-3)Gal(b1-4)GlcNAc(b1-2)Man(a1-3)[GlcNAc(b1-3)Gal(b1-4)GlcNAc(b1-3)Gal(b1-4)GlcNAc(b1-3)Gal(b1-4)GlcNAc(b1-2)Man(a1-6)]Man(b1-4)GlcNAc(b1-4)[Fuc(a1-6)]GlcNAc
# Summary of the method: as §1
# [35] = molecular target: GlcNAc(b1-3)Gal(b1-4)GlcNAc(b1-3)Gal(b1-4)GlcNAc(b1-3)Gal(b1-4)GlcNAc(b1-2)[GlcNAc(b1-3)Gal(b1-4)GlcNAc(b1-3)Gal(b1-4)GlcNAc(b1-3)Gal(b1-4)GlcNAc(b1-6)]Man(a1-6)[GlcNAc(b1-3)Gal(b1-4)GlcNAc(b1-3)Gal(b1-4)GlcNAc(b1-3)Gal(b1-4)GlcNAc(b1-2)Man(a1-3)]Man(b1-4)GlcNAc(b1-4)[Fuc(a1-6)]GlcNAc
# Summary of the method: as §1
# [36] = molecular target: GlcNAc(b1-3)Gal(b1-4)GlcNAc(b1-3)Gal(b1-4)GlcNAc(b1-3)Gal(b1-4)GlcNAc(b1-3)Gal(b1-4)GlcNAc(b1-2)Man(a1-3)[GlcNAc(b1-3)Gal(b1-4)GlcNAc(b1-3)Gal(b1-4)GlcNAc(b1-3)Gal(b1-4)GlcNAc(b1-3)Gal(b1-4)GlcNAc(b1-2)Man(a1-6)]Man(b1-4)GlcNAc(b1-4)GlcNAc
# Summary of the method: as §1
# [37] = molecular target: GlcNAc(b1-3)Gal(b1-4)GlcNAc(b1-3)Gal(b1-4)GlcNAc(b1-3)Gal(b1-4)GlcNAc(b1-3)Gal(b1-4)GlcNAc(b1-2)Man(a1-3)[GlcNAc(b1-3)Gal(b1-4)GlcNAc(b1-3)Gal(b1-4)GlcNAc(b1-3)Gal(b1-4)GlcNAc(b1-3)Gal(b1-4)GlcNAc(b1-2)Man(a1-6)]Man(b1-4)GlcNAc(b1-4)[Fuc(a1-6)]GlcNAc
# Summary of the method: as §1
binder,measurement,setting,value
"CrataBL (Crataeva tapia), C0HJA4 (protein) AILTGVPYYILPSTSRAGFSPDNLRKNTSQLSCPLDLITQLRFPRRIGVPVIFTPQNSSLKVVPLSHNLNIHTCSDLWFCPESKIWTVKSSLTHGGSVVTTGGTFRSLGSWFRIERHGDSYKLVHCPRGSTPCRDVGIETVGGGGRRYLAPRDRPLAVRFTRASG",glycan array binding signal (z-score),Glc(b1-4)Glc,-0.413
same,glycan array binding signal (z-score),Glc(b1-6)Glc,-0.431
same,glycan array binding signal (z-score),GlcA(b1-3)Gal,1.41
same,glycan array binding signal (z-score),GlcA(b1-3)GlcNAc,0.158
same,glycan array binding signal (z-score),GlcA(b1-6)Gal,1.13
same,glycan array binding signal (z-score),[1],1.19
same,glycan array binding signal (z-score),[2],0.289
same,glycan array binding signal (z-score),[3],-0.495
same,glycan array binding signal (z-score),[4],-0.374
same,glycan array binding signal (z-score),[5],0.352
same,glycan array binding signal (z-score),[6],-0.219
same,glycan array binding signal (z-score),[7],-0.325
same,glycan array binding signal (z-score),[8],0.049
same,glycan array binding signal (z-score),[9],-0.479
same,glycan array binding signal (z-score),[10],0.807
same,glycan array binding signal (z-score),[11],-0.513
same,glycan array binding signal (z-score),[12],-0.299
same,glycan array binding signal (z-score),[13],-0.493
same,glycan array binding signal (z-score),[14],-0.302
same,glycan array binding signal (z-score),[15],-0.23
same,glycan array binding signal (z-score),[16],-0.525
same,glycan array binding signal (z-score),[17],-0.474
same,glycan array binding signal (z-score),[18],-0.526
same,glycan array binding signal (z-score),[19],-0.526
same,glycan array binding signal (z-score),[20],-0.494
same,glycan array binding signal (z-score),[21],-0.538
same,glycan array binding signal (z-score),[22],-0.417
same,glycan array binding signal (z-score),[23],-0.509
same,glycan array binding signal (z-score),GlcNAc(b1-3)Fuc,-0.178
same,glycan array binding signal (z-score),GlcNAc(b1-3)Gal,-0.435
same,glycan array binding signal (z-score),[24],-0.119
same,glycan array binding signal (z-score),GlcNAc(b1-3)Gal(b1-4)Glc,-0.387
same,glycan array binding signal (z-score),[25],-0.518
same,glycan array binding signal (z-score),[26],-0.21
same,glycan array binding signal (z-score),[27],-0.267
same,glycan array binding signal (z-score),[28],0.491
same,glycan array binding signal (z-score),[29],-0.458
same,glycan array binding signal (z-score),[30],0.539
same,glycan array binding signal (z-score),[31],-0.076
same,glycan array binding signal (z-score),[32],0.305
same,glycan array binding signal (z-score),[33],-0.17
same,glycan array binding signal (z-score),[34],0.109
same,glycan array binding signal (z-score),[35],0.253
same,glycan array binding signal (z-score),[36],-0.323
same,glycan array binding signal (z-score),[37],-0.429
